In PubChem BioAssay AID1159614 (National Center for Advancing Translational Sciences (NCATS), 2016):
Hit rate of the full screen: of about 45,000 compounds, about 65 (0.1%) were called active. Calls follow the shape of the dose curve; as a rule, active = well fitted activation curve with a large enough effect; inconclusive = small, poorly fitted or top-dose-only effect; inactive = no such curve, though single readings can be large or run the other way. Some of the results follow.

target: Galactocerebrosidase (Homo sapiens) (UniProt P54803); assay: A Novel Cell-Based Assay to Identify Small Molecules for B -Galactocerebrosidase; settings: 145M-Twi-hGALC-G270D cells (Twitcher mouse brain line with human GALC G270D), HMU-beta-Gal fluorescence, 48 h; series mostly up to 57.5 µM; activation: at the top concentration; also: 0% is about no effect; nearly all actives have a fitted effect of over 65% in size
Chain of UniProt P54803 (P54803 whole entry, looked up): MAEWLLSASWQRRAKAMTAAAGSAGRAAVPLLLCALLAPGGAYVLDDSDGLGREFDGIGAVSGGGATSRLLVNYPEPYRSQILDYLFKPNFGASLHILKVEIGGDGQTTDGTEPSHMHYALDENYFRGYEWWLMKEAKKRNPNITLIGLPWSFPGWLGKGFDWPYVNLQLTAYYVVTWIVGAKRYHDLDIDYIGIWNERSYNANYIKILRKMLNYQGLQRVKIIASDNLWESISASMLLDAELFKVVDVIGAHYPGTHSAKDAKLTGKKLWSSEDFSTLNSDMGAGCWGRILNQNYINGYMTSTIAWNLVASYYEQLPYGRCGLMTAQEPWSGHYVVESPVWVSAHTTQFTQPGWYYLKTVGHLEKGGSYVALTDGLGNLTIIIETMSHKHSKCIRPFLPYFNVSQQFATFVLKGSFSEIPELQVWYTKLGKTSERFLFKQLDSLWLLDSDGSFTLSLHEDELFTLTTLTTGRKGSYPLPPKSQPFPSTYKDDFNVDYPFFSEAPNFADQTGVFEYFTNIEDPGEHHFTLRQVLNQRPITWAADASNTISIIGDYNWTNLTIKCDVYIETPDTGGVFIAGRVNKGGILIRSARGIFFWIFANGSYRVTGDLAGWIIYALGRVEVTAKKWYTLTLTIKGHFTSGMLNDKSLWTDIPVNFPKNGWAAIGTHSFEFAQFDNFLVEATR
How it was run: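 Fluorogenic HMU-b-Gal hydrolysis (0.1 mM final, pH 5.2 citrate-phosphate with 1 mg/mL sodium taurocholate; carbonate stop buffer) measures mutant GALC activity after compound treatment of live 145M-Twi Twitcher brain cells stably carrying human GALC-G270D, with wild-type GALC line alongside; activation sought.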

activation, inactive:
CCCCCOc1ccc(/C=C/C(=O)Nc2sc3c(c2C(=O)OCC)CCC3)cc1OC -15.4%
CCCCOc1cccc(C2c3c(-c4cc(C)ccc4O)n[nH]c3C(=O)N2CCOC)c1 (stereo unspecified) -16.3%
COc1ccc(NC(=O)CNC(=O)Cn2ccc3ccccc3c2=O)cc1OC -4.6%
CCc1ccc(NC(=O)c2cc(=O)c3ccc(C)c(C)c3o2)cc1 -9.82%
O=C(Nc1ccccc1C(=O)N1CCCCC1)c1nsc2ccccc12 -12.6%
CN1CCN(c2cc3c(nn2)Oc2ccccc2N3C)CC1 -10.2% [at 23.8 µM]
Cc1cccc(N2CCN(CCCNc3ncnc4onc(-c5ccc(F)cc5)c34)CC2C)c1 (stereo unspecified) -8.4%
O=C(Nc1ccc(F)c(F)c1)c1cc(S(=O)(=O)NC2CCCC2)ccc1F -34%
CCC(C)NC(=O)Cn1ccc2cc(S(=O)(=O)N3CCCCCC3)ccc21 (stereo unspecified) 3.11%
CCc1ccc2oc(-c3cc(NC(=O)c4cccs4)ccc3Cl)nc2c1 -6.99%
COc1cccc(C(=O)Nc2ccc3nc(SCCOc4ccccc4)sc3c2)c1 -9.4%
O=C(CCNS(=O)(=O)c1ccc2c(c1)CCN2C(=O)C1CC1)Nc1ccc(OC(F)(F)F)cc1 -33.9%
CCOC(=O)c1ccc(NC(=O)C2=C(C)C(=O)OC23CCN(C(C)C)CC3)cc1 -12.9%
Cc1ccc2c(=O)cc(C(=O)Nc3sc4c(c3C(=O)NCc3cccnc3)CCCC4)oc2c1 -18.9%
Cc1ccc(CCNC(=O)c2ccc3c(c2)N(Cc2cccc(F)c2)C(=O)c2ccccc2S3)cc1 -12.7%
COc1cccc2cc(C(=O)Nc3ccc(C)cc3)c(=O)oc12 -14.1%
CCOc1ccc(N(CC)C(=O)Cn2cnc3sc(C)c(S(=O)(=O)N4CCN(c5ncccn5)CC4)c3c2=O)cc1 -4.53%
Cc1cc(NS(=O)(=O)c2ccc(NC(=O)COc3cc(C)c(Br)cc3C(C)C)cc2)no1 -8.09%
CC(C)CCNC(=O)c1ccc2nc(Cc3ccccc3)oc2c1 -12.4%
COc1ccc(-c2cc(C(F)(F)F)nc(SCC(=O)NC(C)c3ccccc3)n2)cc1 (stereo unspecified) -30.6%
CCn1cc(S(=O)(=O)c2ccccc2)c(=O)c2cc(F)c(F)cc21 10.2%
Cc1ccc(CN(C(=O)COc2ccc(F)cc2)C2CCS(=O)(=O)C2)o1 (stereo unspecified) -17%
Cc1ccc(-n2ncc(C(=O)NCCN3CCC(Cc4ccccc4)CC3)c2C2CCN(C(=O)OC(C)(C)C)CC2)cc1 3.54%
O=C(NCC(c1cccnc1)N1CCc2ccccc21)c1ccc(Cl)cc1 (stereo unspecified) -8.67%
O=C(Nc1c2c(nn1-c1ccc(Cl)cc1)CS(=O)(=O)C2)c1ccc(Br)cc1 -26.4%
Cc1cc(O)c(CN2CCN(c3ccccc3)CC2)c2oc(=O)cc(C)c12 -18.3%
CCOC(=O)c1cc(NC(=O)c2ccc(F)cc2)c(=O)n2c1oc1ccc(Cl)cc12 -5.32%
CCCSCCCNC(=O)Cn1c(-c2cccs2)cc2ccccc21 -10.4%
Cc1ccc(NC(=O)CCCn2nc(C)c3c(C)n(-c4ccccc4)nc3c2=O)c(Cl)c1 -11.4%
CCCN1C(C(=O)c2ccccc2)=C(OC(=O)COc2ccc(C)cc2)c2ccccc2S1(=O)=O -3.65%
COC(=O)CN1C(C(=O)c2ccccc2)=C(OC(=O)c2ccccc2)c2ccccc2S1(=O)=O -15.8%
Cc1ccc(NC(=O)C2CCCN(S(=O)(=O)c3cccs3)C2)c(C)c1 (stereo unspecified) -2.22%
COc1ccc(S(=O)(=O)N(CC(=O)Nc2ccc(Br)cc2)Cc2ccccc2)cc1 -9.95%
Cc1ccc(C(=O)Nc2cnc3ccccn3c2=O)cc1 -28.8%
CCCn1c2ccccc2c2cnn(CC(=O)N3CCCC(C(=O)OCC)C3)c(=O)c21 (stereo unspecified) -8.99%
CCCCN(CCCC)C(=O)c1c[nH]c2ccc(S(=O)(=O)Nc3cccc(Cl)c3C)cc2c1=O -6.67%
CCN1CCN(C(=O)Cn2ncc3c4ccccc4n(Cc4c(C)cc(C)cc4C)c3c2=O)CC1 -21.6%
Cc1nc(-c2ccc(S(=O)(=O)NCc3ccccc3Cl)cc2)co1 -4.95%
CCc1ccccc1NC(=O)Cn1c(=O)n(-c2ccc(C)cc2)c(=O)c2cc(OC)c(OC)cc21 -7.77%
COC(=O)c1scc(-c2ccc(C)cc2)c1S(=O)(=O)N1CCN(c2cccc(Cl)c2)CC1 -14.5%
O=C(NO)c1ccccc1 -13.2% [at 114 µM]
CCN(CCCNC(=O)Cn1ncc2c([nH]c3ccccc32)c1=O)c1cccc(C)c1 -5.44%
O=C(O)/C=C/c1ccc(Cn2ccnc2)cc1 -12.7%
CCc1ccccc1Nc1sc(C(=O)c2ccccc2)c(N)c1S(=O)(=O)c1ccccc1 -7.96%
CCCCN(CC)C(=O)CSc1nc2c(sc3ccccc32)c(=O)n1CCc1ccccc1 0.273%
CN(C)C(=O)c1ccc(S(=O)(=O)NCc2ccc(Cl)cc2)s1 -8.39%
COc1ccc(C(=O)NCc2cn3ccc(C)cc3n2)cc1 -8.25%
Cc1c(C(=O)Nc2c(F)cccc2F)sc2ncn(Cc3ccccc3F)c(=O)c12 -8.52%
Cc1ccc(S(=O)(=O)c2nc(-c3cccs3)oc2N2CCC(C)CC2)cc1 -18.1%
Cn1c(=O)sc2cc(NS(=O)(=O)c3ccc(C(C)(C)C)cc3)ccc21 -16.8%
CC(=O)N1CCc2c(sc3c2c(=O)n(-c2ccccc2C)c(=O)n3CC(=O)Nc2ccccc2)C1 -15.3%
CCC1CN(S(=O)(=O)c2cc(-c3cc(C)no3)ccc2OC)c2cc(Cl)ccc2O1 (stereo unspecified) -9.16%
O=C1CN(C(=O)c2ccc(S(=O)(=O)N3CCCC3)cc2)C(c2ccc(F)cc2)c2cc(Br)ccc2N1 (stereo unspecified) -3.57%
COC(=O)c1ccccc1NC(=O)NCc1ccc2c(c1)CCN2C(=O)c1ccccc1 -11.3%
O=S(=O)(NCCc1csc2nc(-c3ccc(Cl)cc3)nn12)c1cccs1 -0.544%
Cc1ccc2c(c1)N(C(=O)N1CCC(C(=O)Nc3cccc(F)c3)CC1)CCO2 -5.73%
CC(C)CC(=O)NC1CC(=O)N(c2ccc3c(c2)OCCO3)C1 (stereo unspecified) -10.6%
CCCCNC(=O)CSc1nc2cc3c(cc2c(=O)n1CCCC(=O)NCc1ccc(OC)cc1)OCO3 -6.75%
CN(Cc1ccccc1)c1nc2c(S(=O)(=O)c3cccc(Cl)c3)nnn2c2ccsc12 -20.2%
Cc1ccc2c(c1)N(C(=O)CCC(=O)NCc1ccccc1F)CC(C)O2 (stereo unspecified) -17.5%
O=C(COc1ccc(Cl)cc1)OCc1cc(=O)n2nc(C3CCCCC3)sc2n1 -15.7%
Cc1cc(C)cc(NC(=O)[C@H]2O[C@@H]3OC(C)(C)O[C@@H]3[C@H]3OC(C)(C)O[C@H]32)c1 -9.2%
CCOC(=O)c1ccc2c(c1)N(Cc1cc(C)ccc1C)C(=O)c1ccccc1S2(=O)=O -2.7%
CCc1ccccc1NC(=O)CN(c1cc(C(F)(F)F)ccc1Cl)S(=O)(=O)c1ccccc1 -5.63%
O=c1c2oc3ccccc3c2n(Cc2ccccc2Cl)c(=O)n1Cc1ccc2c(c1)OCO2 7.26%
COc1cc(Nc2nc3c(S(=O)(=O)c4ccccc4)nnn3c3ccc(Cl)cc23)cc(OC)c1 4.87%
COc1ccccc1Nc1cc(C(=O)NCCCN(C)C2CCCCC2)c2ccccc2n1 1.47%
Cc1ccsc1CN(Cc1ccco1)c1cnc(S(C)(=O)=O)nc1C(=O)Nc1ccc(Cl)cc1 -11.1%
Cn1c(=O)oc2cc(S(=O)(=O)CCC(=O)NCc3ccc(Cl)cc3)ccc21 -18%
Clc1cccc(Nc2ncnc3c2nc2n3CCCCC2)c1 -22.6%
Cc1ccccc1C(=O)N1CCC(c2nc(-c3ccc(S(=O)(=O)N4CCCC4)cc3)no2)CC1 -0.866%
Cc1ccc(NS(=O)(=O)c2ccc(-n3cccn3)cc2)c(Br)c1 -14.5%
Cc1cccc(C(=O)Nc2ccc(OCc3cc(=O)n4ccc(C)cc4n3)cc2)c1 0.519%
COc1ccc(Nc2nc3ccccc3n3c(N)nnc23)cc1 -8.99%
COc1ccc(-c2cn3nc(SCC(=O)Nc4cccc(C)c4C)ccc3n2)cc1 -23.9%
CCOCCn1ccc2c(OCC(=O)Nc3cc(C)cc(C)c3)cccc2c1=O -18.3%
Cc1ccc(NC(=O)N2CC=C(c3c[nH]c4ccccc34)CC2)cc1Cl -14.5%
CC1CCN(C(=O)CN2CC(C)Sc3ccccc32)CC1 (stereo unspecified) -9.69%
Cc1cccc(N2CCn3c2nc2c3c(=O)n(CCCc3ccccc3)c(=O)n2C)c1 8.33%
COc1cc2c(C(=O)N(C)c3cccc(C(F)(F)F)c3)cn(CC(C)C)c(=O)c2cc1OC -16%
Cc1oc(-c2cccc(Cl)c2)nc1Cn1c(SCc2ccc(F)cc2)nc2cccnc21 0.356%
Cc1ccc(C(c2sc3nc(-c4ccco4)nn3c2O)N2CCN(c3ccc(F)cc3)CC2)cc1 (stereo unspecified) -1.94%
CCCCN(C)C(=O)CCC(=O)NNc1nc2ccccc2c2nc(C)nn12 2.44%
CCC(Nc1ccc(-c2nc(-c3ccccn3)no2)cc1[N+](=O)[O-])c1ccccc1 (stereo unspecified) -20.9%
COc1cc2c(cc1OC)C(COc1cc(C)cc(C)c1)N(C(=O)C(C)(C)C)CC2 (stereo unspecified) -18.5%
CCc1ccc(S(=O)(=O)c2nnn3c2nc(N(CC)Cc2ccccc2)c2cc(Cl)ccc23)cc1 -12.8%
Cc1cc2n(n1)CCCN2C(=O)Nc1ccccc1C(F)(F)F -10.8%
O=C(CCCCCn1c(=O)c2sccc2n(CC(=O)Nc2ccccc2F)c1=O)NCc1ccc2c(c1)OCO2 -23.4%
CCC(C)OC(=O)/C(C#N)=C/c1ccc(-c2ccc(Br)cc2)o1 (stereo unspecified) -16.8%
Cc1ccc(C2CC(=O)Nc3c2c(C)nn3-c2nc(C)cc(C)n2)c(C)c1 (stereo unspecified) -12.2%
COc1cc(CN(C(=O)COc2ccccc2)c2ccccn2)cc(OC)c1OC -31.7%
CSc1ncc(C(=O)Nc2ccc(C(C)=O)cc2)c(-c2ccccc2)n1 -16.1%
COc1ccc(NC(=O)c2cn3c4c(ccc(Cl)c4c2=O)OC(C)C3)cc1OC (stereo unspecified) -10.5%
COc1ccc(N(Cc2cccs2)C(=O)COc2cc(C)c(Cl)c(C)c2)cc1 6.96%
CCOc1ccc2nc(NC(=O)c3cc(=O)c4cc(C)cc(C)c4o3)sc2c1 -1.08%
COc1ccc(-c2noc(-c3cccc(OC)c3OC)n2)cc1 -1.7%
